Laboratory results: the supplement of paper PMC11417369
± gives the standard deviation of the averaged measurements. The list shows a part of the results.

tested on: PfAP2-LT AP2 domain (GST-tagged); assay: gcPBM binding intensity (ln(normalized median fluorescence intensity)); higher = stronger DNA binding
How it was run: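 GST-fused DNA-binding domains of P. falciparum, expressed in E. coli, were applied at about 25 μg on average for 1 h to an Agilent 4 × 180k array of primer-extended double-stranded 36-bp intergenic genomic probes and negative controls. Binding intensity is the highest Masliner-normalised natural-log median intensity across replicate spots of either probe orientation, measured with Alexa488 anti-GST antibody and a 488 nm scan.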

Row | Sequence | gcPBM binding intensity (ln)
1 | ATGTAGTCTCAAGACTGTACAAACAAGTAAATAAAA [XGTACX_site4120] | 8.99 ± 0.43
2 | AAATTATAAATAATTTGTACATAAAAATTGGTAAAG [XGTACX_site5197] | 8.72 ± 0.36
3 | ACATGTGAAGGGAACATAAATTGGGGTTTTATATTG [XGTACX_negctrl_site508] | 9.02 ± 0.19
4 | GAATATAAAAAAGAATGTACTTGAACAGTCCTAAAA [XGTACX_site745] | 8.6 ± 0.48
5 | TCCATCCACATATATGTACACACATATATATATATA [CACACA_site8970] | 9.57 ± 0.18
6 | GTTAAGGGTATATATACACACATATGTAATACATGA [CACACA_site5650] | 9.2 ± 0.39
7 | ACAATTTTATTTAAAGTGCATGTAAAATTAAAACTT | 8.51 ± 0.4
8 | AATAAATATCAATACACACACACAAAAGTGAATAAA [CACACA_site3763] | 9.68 ± 0.29
9 | TATACATTTATGTACACACACATATATGTATATTTA [CACACA_site2966] | 9.2 ± 0.39
10 | AAAGGAAGAAAAAATAGTACATATATATATATATAA [XGTACX_site766] | 9.26 ± 0.27
11 | ATTTTTTACGTATAGTACAAAGTTTTATGATACATA [CACACA_negctrl_site965] | 8.73 ± 0.49
12 | ATGAAATATATTATATGTACATATTTATTTTTTATA [XGTACX_site7319] | 8.63 ± 0.49
13 | CATTATAAAAAATAAAAAAGAAATAATTGTATATGC [CACACA_negctrl_site478] | 8.63 ± 0.42
14 | AAATGCTAAAAATAGAGTACAGATAACGAAAAGTGT [XGTACX_site8830] | 9.12 ± 0.51
15 | AAATAGTAAATAAGGGGTACAAAAAAAAAAAAAAAA [XGTACX_site8362] | 8.48 ± 0.7
16 | AAAAAATTGACTAATGCACACAATTACATATATATA [CACACA_site1689] | 8.97 ± 0.43
17 | CAATTTTTCTATCATTGTACTTTTATATAATAGTGT [XGTACX_site1810] | 8.78 ± 0.39
18 | ATTATAAATACACGCACACACACTTATATATATATA [CACACA_site5776] | 9.76 ± 0.33
19 | AATTGTTCTATGATTTGTACACACTTTTTTTTAAAA [XGTACX_site5984] | 8.96 ± 0.45
20 | TTTTTTGCTTTCAACACACATACAATCTATATAATC [CACACA_site4125] | 8.8 ± 0.42
21 | TAAACCTGTAGAGATGCATGCATTGTTAACATGGTG [TGCATGCA_site515] | 9.03 ± 0.39
22 | AAGGAGAAATAAATATTAAAAAATTTATATATATAT [CACACA_negctrl_site1801] | 8.7 ± 0.42

Row | Sequence | gcPBM binding intensity (ln)
23 | TAATATTGCAAATATAAAAAAAAATAAACCATATAT [XGTACX_negctrl_site458] | 8.81 ± 0.47
24 | TTCTTTTTTAACAACAAAAAAAAAAAAAAAAAAAAA [TGCATGCA_negctrl_site87] | 8.12 ± 0.19
25 | CCATTTACCCTTGCCATGCACACTTTTTTATAGAAA [CACACA_site3505] | 9.07 ± 0.55
26 | AAAATAATGTTTATATGTACATATATATATATATAT [XGTACX_site8815] | 9.32 ± 0.099
27 | ATATTTTTTTATAAATGTACAAAAATAATATTGCAT [XGTACX_site7399] | 8.47 ± 0.3
28 | TTATAAAAATAATATCGTACAAATGATAAAGATTAA [XGTACX_site4893] | 8.69 ± 0.44
29 | TGAATTCGTCAAAAGCGTACATATAATATCTTCTTG [XGTACX_site8842] | 8.81 ± 0.4
30 | ACATATATATATATATATAATATTTTATATTTATTA [CACACA_negctrl_site713] | 8.72 ± 0.36
31 | TATATAGTAATATATACACACACTTGTCTTGTAAAA [CACACA_site990] | 9.17 ± 0.33
32 | TTTTTATTTAATATTTTAAAAAAAAATCATTTTTAA [XGTACX_negctrl_site207] | 7.8 ± 0.47
33 | AAGATTAATATTTTATGTACATATGTAATATATATG [XGTACX_site4367] | 8.75 ± 0.37
34 | AAGAATACACCACGCACACACACTTGAGAAAAAATA [CACACA_site3828] | 9.96 ± 0.47
35 | TTCTTTGTGGTATAGATACACACTATATTAATATGA [CACACA_site2150] | 8.95 ± 0.51
36 | ATATATACCTAAGACACACACATATAGATTTATATA [CACACA_site6498] | 9.29 ± 0.34
37 | ATTTTAGATATCCTGCGTACACAAATTGCTTTATTT [XGTACX_site7149] | 9.11 ± 0.45
38 | AAAATTTCAATAAATACACACATATATATATATATT [CACACA_site1685] | 9.04 ± 0.33
39 | AAATAATATATGAATGCACACAGTAAAAATTAAAGA [CACACA_site2252] | 9.21 ± 0.43
40 | ATAAATTTATATACTTGTACATATATATATTACATA [XGTACX_site6697] | 8.73 ± 0.4
41 | TATATATACATATACACACACACACCCATATATATA [CACACA_site2246] | 10 ± 0.11
42 | TTTGAAATAAAAAGGTGTACACTCGATTAATAAATA [XGTACX_site6943] | 8.7 ± 0.44
43 | TTTTAGCACTTATTATAAGATATCAAAAAGATGGGT [XGTACX_negctrl_site325] | 8.52 ± 0.4
44 | ACTATCATTTTTTTAACACACAAAAAAAATAAAATA [CACACA_site3519] | 8.64 ± 0.37
